Experimental data taken from article PMC6919601, “Identification of Plasmodium dipeptidyl aminopeptidase allosteric inhibitors by high throughput screening” (PLoS ONE, 2019).
The campaign covered roughly 110,000 compounds. About 230 (0.21%) showed an effect of 50% or more. Some of the results follow.

Biological target: DPAP1 (Plasmodium falciparum, UniProt Q8IIJ9)
Experiment: primary screen, percent inhibition; read by cleavage of a fluorogenic dipeptide substrate; higher = more effect of the substance
Set-up: species or system P. falciparum D10 trophozoite lysates; single well
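Also: 30 min substrate incubation versus DMSO and 10 µM JCP410 controls.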

Sequence of DPAP1 (Q8IIJ9 whole entry, looked up): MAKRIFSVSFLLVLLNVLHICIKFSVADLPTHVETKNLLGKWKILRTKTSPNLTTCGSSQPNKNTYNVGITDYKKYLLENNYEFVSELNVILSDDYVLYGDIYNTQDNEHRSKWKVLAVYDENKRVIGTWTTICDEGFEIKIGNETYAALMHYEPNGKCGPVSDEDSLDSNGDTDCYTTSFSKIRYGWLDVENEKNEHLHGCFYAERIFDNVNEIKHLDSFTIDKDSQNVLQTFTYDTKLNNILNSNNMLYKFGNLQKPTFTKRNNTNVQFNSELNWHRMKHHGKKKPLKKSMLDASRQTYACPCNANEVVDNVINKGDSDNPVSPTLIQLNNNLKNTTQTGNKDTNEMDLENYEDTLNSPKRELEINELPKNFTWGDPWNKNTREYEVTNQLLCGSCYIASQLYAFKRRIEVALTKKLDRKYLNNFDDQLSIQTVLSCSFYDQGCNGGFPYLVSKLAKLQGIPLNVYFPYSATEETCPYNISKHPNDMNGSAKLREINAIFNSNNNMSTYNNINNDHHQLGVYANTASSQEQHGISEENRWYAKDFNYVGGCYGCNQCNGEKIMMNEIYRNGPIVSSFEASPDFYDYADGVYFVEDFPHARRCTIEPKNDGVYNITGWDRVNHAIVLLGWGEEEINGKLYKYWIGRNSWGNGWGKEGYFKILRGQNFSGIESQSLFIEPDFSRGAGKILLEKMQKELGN

Structure (SMILES) | % Inhibition @ 10 uM
CC1(C)CC(=O)c2cnc(NC(=O)Nc3ccc(Cl)c(Cl)c3)nc2C1 | -8.2%
Cc1cccc(C)c1NC(=O)CCCC(=O)O | -3.77%
CC(=O)N1N=C(C(F)(F)F)CC1(O)c1ccncc1 (stereo not drawn) | 1.72%
CC(C)(C)c1cc(C(C)(C)C)cc(S(N)(=O)=O)c1 | -1.69%
Cc1cc(CN2CCN(C3CCCCC3)CC2)cs1 | -4.51%
Cn1c2ccccc2c2cnn(CC(=O)N3CCC4(CC3)OCCO4)c(=O)c21 | -1.92%
Cc1nnc(C)n1/N=C\c1c(F)cccc1Cl | 1.39%
c1ccc(CN2CCn3c4c(c5ccccc53)CCCC42)cc1 (stereo not drawn) | -1.25%
CCCc1cc(O)n2nc(NC(=O)CCc3ccccc3)nc2n1 | -1.31%
CCS(=O)(=O)c1nc(S(=O)(=O)c2ccc(Cl)cc2)c(NCCOC)s1 | -9.79%
CCSc1nncc(-c2ccccc2)n1 | -2.48%
Cc1ccc2cc3cc(C(=O)NC4CCCCC4)oc3nc2c1 | -1.54%
O=C1C2C(c3ccccc3)OC3(C(=O)c4ccccc4C3=O)C2C(=O)N1c1ccc(F)cc1 (stereo not drawn) | 3.74%
CC(=O)Nc1ccc(S(=O)(=O)Nc2cccc(Cl)c2C)cc1 | 1.63%
CC1CN(Cc2ccc(Br)cc2)CC(C)O1 (stereo not drawn) | 0.273%
Cc1nccn1CCCNC(=O)c1nc(-c2cccs2)no1 | 2.65%
CC(=O)c1ccc(OCCOc2ccc([N+](=O)[O-])cc2)cc1 | -2.62%
O=S(=O)(c1c(F)cccc1F)N1CCN(Cc2ccc3c(c2)OCO3)CC1 | -12.8%
CC(=O)c1c(CC(=O)O)nn(-c2nc3ccccc3s2)c1O | -5.62%
O=C(c1ccccc1Br)N1CCN(CCN2C(=O)c3cccc4cccc(c34)C2=O)CC1 | 2.36%
O=C(O)C1C2C=CC(C2)C1C(=O)Nc1cc(C(F)(F)F)ccc1Cl (stereo not drawn) | -2.09%
C=CCOCCN(C)C1=NS(=O)(=O)c2ccccc21 | 10.9%
COc1ccc(CNC(=O)COc2ccc(S(=O)(=O)NC(C)C)cc2)cc1 | -10.8%
CC1=C(C(=O)OCc2ccccc2)C(c2ccc(C)s2)NC(=O)N1 (stereo not drawn) | 1.26%
OC(Cc1nc2ccccc2n1-c1ccccc1)(c1ccccc1)c1ccccc1 | 1.84%
O=C(O)C1CCCN(C(=O)c2cnn(-c3ccccc3)c2-n2cccc2)C1 (stereo not drawn) | -0.0309%

Structure (SMILES) | % Inhibition @ 10 uM
CCOC(=O)c1nn(-c2ccccc2)c(O)c1/C=C1\C=Nc2ccccc21 | 2.65%
Cc1cc(C)c2oc(C(=O)N(Cc3ccccc3)c3ccccn3)cc(=O)c2c1 | -1.47%
NC(=O)c1cccc2c1C(=O)N(C1CCCCC1)C2 | -4.93%
COCC(C)NC1CCN(Cc2ccccc2)CC1 (stereo not drawn) | 3.18%
N#CC1=C(N)OC2=C(COc3ccccc32)C1c1cccc(F)c1 (stereo not drawn) | 3.99%
CCc1nnc(NC(=O)c2nc(S(=O)(=O)Cc3ccccc3)ncc2Cl)s1 | 2.41%
CCCc1cc2c(cc1N)OCCO2 | -2.48%
CCOc1ccc(C(=O)Nc2nnc(S(=O)(=O)N3CCCCC3)s2)cc1 | -3.74%
O=C(CN(Cc1ccc(Cl)c(Cl)c1)S(=O)(=O)c1ccccc1)NCc1ccccn1 | -5.49%
Oc1ccccc1-c1nc(O)c2c3c(sc2n1)CCCC3 | -0.891%
Cc1cccc(NC(=O)COc2ccccc2C)c1 | -2.12%
O=C(Nc1ccc(Cl)cc1)C(=O)NC1CCCC1 | -7.18%
CCCCc1ccc(-c2nc(C3CCC(C4CCC(CCC)CC4)CC3)no2)cc1 (stereo not drawn) | 0.98%
COc1ccc(CCNCc2ccccc2C)cc1OC | -2.37%
O=C(NCc1ccccc1Cl)c1cnn2c(C(F)(F)F)cc(-c3cccs3)nc12 | 1.27%
Cc1ccc(C(=O)Nc2ccc(S(=O)(=O)N3CCC(C)CC3)cc2)cc1 | 0.964%
CC(C(=O)NCc1ccccn1)n1c2ccccc2c2cnn(C)c(=O)c21 (stereo not drawn) | -3.79%
Cc1[nH]nc2c1C(c1cc(Br)ccc1OCc1cccc(F)c1)C(C#N)=C(N)O2 (stereo not drawn) | 0.121%
Cc1ccc2onc(CNC(=O)N3CCC(C)CC3)c2c1 | -4.02%
Cn1c(CNc2ccc(Cl)cc2)nc2ccccc21 | -1.37%
CCOC(=O)N1CCN(c2c(NCCCN(CC)Cc3ccccc3)c(=O)c2=O)CC1 | 1.93%
CCC(C)NC(=O)Cn1ncc2c3ccccc3n(Cc3cccc(Cl)c3)c2c1=O (stereo not drawn) | 1.8%
O=C(O)c1cccc2[nH]ncc12 | 6.3%
CC1=C(c2ccc(C)c(C)c2)S(=O)(=O)N=C1N1CCC(C(=O)NCc2ccc3c(c2)OCO3)CC1 | -0.835%
Cc1nc(Oc2ccccc2)cc(-n2nc(C)c(C(N)=O)c2N)n1 | -3.65%
Cc1nnc2c(NCCN3CCOCC3)nc3ccccc3n12 | 4.95%

Structure (SMILES) | % Inhibition @ 10 uM
O=C(CSCc1ccccc1)Nc1nnc(COc2ccc(Cl)cc2)s1 | 2.3%
c1ccc2c(CN3CCCCC3)csc2c1 | 0.82%
CCOc1ccc(N2C(=O)CC(N(Cc3ccco3)C(=O)c3ccc(Cl)cc3)C2=O)cc1 (stereo not drawn) | 1.01%
N#Cc1c(C(F)(F)F)cc(-c2ccc(F)cc2)nc1SCC(=O)NC1CC1 | 4.75%
CCCCCCC1CCC(C(=O)NC(CCSC)C(=O)O)CC1 (stereo not drawn) | 0.505%
CCOc1ccc(-n2c(CN(CC)CCO)nc3ccccc3c2=O)cc1 | -3.33%
CCOc1ccccc1/C=C/C1=[N+](C)c2ccc(C(=O)OC)cc2C1(C)C | -3.41%
Cc1sc(C2C(C#N)=C(N)OC3=C2C(=O)CC(C)(C)C3)cc1COc1ccc(Br)cc1 (stereo not drawn) | 1.03%
CCOCCCNC(=O)CCS(=O)(=O)Cc1ccc(C)cc1 | 0.514%
CCOc1ccccc1C1C(C(=O)OC)=C(N)OC2=C1C(=O)CC(C)(C)C2 (stereo not drawn) | 23.4%
CN1CCC(N2CCN(Cc3ccccc3)CC2)CC1 | 1.57%
CC(=O)Nc1cccc(Nc2nc(N3CCOCC3)nc(N(c3ccccc3)c3ccccc3)n2)c1 | 3.31%
CCOC(=O)C1=C(CC)OC(N)=C(C#N)C12C(=O)Nc1cc(Br)c(C)cc12 (stereo not drawn) | 1.13%
O=C1c2cccc3cccc(c23)C(=O)N1O | 13.1%
O=C(O)CC(CN1C(=O)C(O)=C(C(=O)c2ccccc2)C1c1ccc(Cl)cc1)c1ccccc1 (stereo not drawn) | 9.65%
Cc1noc(/C=C/c2ccco2)c1S(=O)(=O)N1CCC(C(=O)Nc2ccc(Cl)cn2)CC1 | -3.09%
CCc1ccccc1S(=O)(=O)Cc1ccc(C(=O)NCc2ccc(C)cc2)o1 | -3.09%
O=C(NCC(F)(F)C(F)F)c1ccncc1 | 4.14%
Cc1cc(C)c(C#N)c(SCc2nc3ccccc3[nH]2)n1 | 0.76%
CC(=O)Nc1ccc(NC(=O)c2ccc(Cl)c([N+](=O)[O-])c2)cc1 | -4.35%
Cc1cc(C)cc(NC(=O)c2ccccc2C)c1 | 3.53%
CCN(CC)CCN(CC)Cc1ccc(Cl)c(Cl)c1 | -0.446%
CS(=O)(=O)c1ccc2nc(NC(=O)NC3(C(F)(F)F)Oc4ccccc4O3)sc2c1 | 3.61%
CCCc1nc2ccccc2n1C(=O)c1ccccc1C(=O)O | 2.1%
Nc1nnc(SCC(=O)Nc2nnc(-c3ccccc3)s2)s1 | 14.1%
COc1ccccc1NC(=O)C1=C(C)N=C2CCCC(O)=C2C1c1cccc(Br)c1 (stereo not drawn) | -2.77%

Structure (SMILES) | % Inhibition @ 10 uM
CC1=C(C(=O)N2CCOCC2)C(c2ccc(C(F)(F)F)cc2)C2=C(O)CCCC2=N1 (stereo not drawn) | -1.48%
Cc1ccsc1C1CC(=O)NC2=C1C(=O)CC(C)(C)C2 (stereo not drawn) | -1.29%
C(=C\c1ccccc1)/CN1CCN(Cc2ccccc2)CC1 | 2.23%
Brc1ccc(CN2CCN(c3ncccn3)CC2)cc1 | -4.61%
COc1ccccc1/C=C/CN1CCCCC1 | 2.1%
CC1(C)CC2=Nc3ncnn3C(c3ccc(OC(F)F)cc3)C2=C(O)C1 (stereo not drawn) | 3.32%
CCc1ccc(N2CC(C(=O)Nc3cccc(OC(C)C)c3)CC2=O)cc1 (stereo not drawn) | -2.83%
CN(C)CCC1c2ccccc2CSc2ccccc21 (stereo not drawn) | -0.759%
Cc1cc(C)c(NC(=O)c2ccc(Br)o2)c(C)c1 | -2.18%
Cc1cccc(-n2c(-c3cccs3)nc3ccccc3c2=O)c1 | 0.812%
Cc1nc2ccn(Cc3cccs3)c(=O)c2cc1C(=O)N1CCN(c2ccccn2)CC1 | 1.11%
CCOc1cccc2sc(N(CCN(C)C)C(=O)c3ccco3)nc12 | -9.17%
O=C(O)C(Cc1ccc(F)cc1)NS(=O)(=O)c1ccc(Br)s1 (stereo not drawn) | 5.49%
CS(=O)(=O)N(CC(=O)N1CCc2ccccc2C1)c1ccccc1Cl | 3.44%
Cc1ccc(Oc2c(C(F)(F)F)oc3c(CN4CC(C)OC(C)C4)c(O)ccc3c2=O)cc1 (stereo not drawn) | -1.17%
COC(=O)/C(C#N)=C/c1c(Oc2ccc(C(C)(C)C)cc2)nc2ccccn2c1=O | 5.89%
COc1ccc(-c2noc(CN(C(=O)CCC3CCCC3)C(C)C)n2)cc1 | 1.1%
COc1ccccc1OCCSc1nnc2nc(O)cc(N)n12 | -4.78%
CCC(C)Nc1ncnc2c1cnn2-c1cccc(C)c1 (stereo not drawn) | -3.38%
COc1cc(OC)c(OC)cc1/C=C1\CCC(C2CCCC2)C1=O (stereo not drawn) | 7.57%
Oc1nc2ccccc2nc1C(F)(F)C(F)F | -8.03%
Cc1ccc(-c2nc3c(c(-c4ccc(C)cc4)n2)CCCC3)cc1 | -10.3%
CCOC(=O)C1=NNC(C(=O)c2ccc(OC)cc2)C1c1ccccc1Cl (stereo not drawn) | 5.59%
O=C1C2CCN(CC2)C1Cc1ccc(OCCOc2ccccc2)cc1 (stereo not drawn) | 2.14%
